{"source": "the supplement of paper PMC4604168 (melanoma cell lines)", "note": "The other results are listed elsewhere or left out. Many values rest on one well or one pass, so single values are uncertain.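 Note: cell number obtained by counting DAPI-stained nuclei in high-throughput microscope images with image analysis software, screen run in 1,536-well plates.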"}
{"test_system": "A101D", "assay": "cell count relative to DMSO control; melanoma cells; higher = more viable cells", "conditions": "library dose: low library concentration; 72 h", "units": {"cell count": "%"}}
{"smiles": "CNC(=O)c1cc(Oc2ccc(NC(=O)Nc3ccc(Cl)c(C(F)(F)F)c3)cc2)ccn1", "note": "[sorafenib] + COC(=O)c1sccc1S(=O)(=O)Nc1ccc(Nc2ccccc2)cc1OC [GSK0660] (first compound 0.4 µM, partner dose 1 µM)", "cell count": 98.2}
{"smiles": "CNC(=O)c1cc(Oc2ccc(NC(=O)Nc3ccc(Cl)c(C(F)(F)F)c3)cc2)ccn1", "note": "[sorafenib] + CCN(CC)CCCCNc1ncc2cc(-c3cc(OC)cc(OC)c3)c(NC(=O)NC(C)(C)C)nc2n1 [PD173074] (first compound 0.4 µM, partner dose 0.1 µM)", "cell count": 101}
{"smiles": "CN1CCN(c2ccc3nc(-c4c(N)c5c(F)cccc5[nH]c4=O)[nH]c3c2)CC1", "note": "[Dovitinib] + O=c1cc(-c2cccc3c2Sc2ccccc2S3)oc(N2CCOCC2)c1 [KU55933] (first compound 0.1 µM, partner dose 1 µM)", "cell count": 106}
{"smiles": "C=CCNC1=C2C[C@@H](C)C[C@H](OC)[C@H](O)[C@@H](C)/C=C(\\C)[C@H](OC(N)=O)[C@@H](OC)/C=C\\C=C(/C)C(=O)NC(=CC1=O)C2=O", "note": "[Tanespimycin] + O=C1NC(=O)/C(=C/c2ccc(-c3ccc(F)cc3O)o2)S1 [AS252424] (first compound 0.002 µM, partner dose 1 µM)", "cell count": 94.8}
{"smiles": "C=CCNC1=C2C[C@@H](C)C[C@H](OC)[C@H](O)[C@@H](C)/C=C(\\C)[C@H](OC(N)=O)[C@@H](OC)/C=C\\C=C(/C)C(=O)NC(=CC1=O)C2=O", "note": "[Tanespimycin] + O=C(O)C(=O)Nc1sc2c(c1C(=O)O)CCNC2 [TCS401] (first compound 0.002 µM, partner dose 1.66667 µM)", "cell count": 85}
{"smiles": "C=CCNC1=C2C[C@@H](C)C[C@H](OC)[C@H](O)[C@@H](C)/C=C(\\C)[C@H](OC(N)=O)[C@@H](OC)/C=C\\C=C(/C)C(=O)NC(=CC1=O)C2=O", "note": "[Tanespimycin] + COc1ccc2c(c1)CCC1C2CCC2(C)C(NCCCCCCN3C(=O)C=CC3=O)CCC12 [U73122] (first compound 0.002 µM, partner dose 0.4 µM)", "cell count": 88.3}
{"smiles": "CNC(=O)c1cc(Oc2ccc(NC(=O)Nc3ccc(Cl)c(C(F)(F)F)c3)cc2)ccn1", "note": "[sorafenib] + N#Cc1c(O)c2c(-c3ccc(-c4ccccc4O)cc3)csc2[nH]c1=O [A769662] (first compound 0.4 µM, partner dose 2 µM)", "cell count": 102}
{"smiles": "CS(=O)(=O)CCNCc1ccc(-c2ccc3ncnc(Nc4ccc(OCc5cccc(F)c5)c(Cl)c4)c3c2)o1", "note": "[lapatinib] + Oc1cc(-c2nc(-c3ccccc3)[nH]c2-c2ccncc2)ccc1Cl [L779450] (first compound 0.8 µM, partner dose 0.2 µM)", "cell count": 100}
{"smiles": "CN1CCN(c2ccc3nc(-c4c(N)c5c(F)cccc5[nH]c4=O)[nH]c3c2)CC1", "note": "[Dovitinib] + O=C(O)C(=O)Nc1sc2c(c1C(=O)O)CCNC2 [TCS401] (first compound 0.1 µM, partner dose 1.66667 µM)", "cell count": 96.6}
{"smiles": "C=CCNC1=C2C[C@@H](C)C[C@H](OC)[C@H](O)[C@@H](C)/C=C(\\C)[C@H](OC(N)=O)[C@@H](OC)/C=C\\C=C(/C)C(=O)NC(=CC1=O)C2=O", "note": "[Tanespimycin] + COc1ccc(COc2ccc(Cc3cnc(N)nc3N)cc2OC)cc1 [GW2580] (first compound 0.002 µM, partner dose 1 µM)", "cell count": 97.6}
{"smiles": "CNC(=O)c1cc(Oc2ccc(NC(=O)Nc3ccc(Cl)c(C(F)(F)F)c3)cc2)ccn1", "note": "[sorafenib] + COc1ccc(-c2ccc3c(N4CCOCC4)nc(N4C[C@@H](C)O[C@@H](C)C4)nc3n2)cc1CO [KU0063794] (first compound 0.4 µM, partner dose 0.02 µM)", "cell count": 92.8}
{"smiles": "CNC(=O)c1cc(Oc2ccc(NC(=O)Nc3ccc(Cl)c(C(F)(F)F)c3)cc2)ccn1", "note": "[sorafenib] + COc1ccc2c(c1)CCC1C2CCC2(C)C(NCCCCCCN3C(=O)C=CC3=O)CCC12 [U73122] (first compound 0.4 µM, partner dose 0.4 µM)", "cell count": 0.553}
{"smiles": "C[C@@H](Oc1cc(-c2cnn(C3CCNCC3)c2)cnc1N)c1c(Cl)ccc(F)c1Cl", "note": "[Crizotinib] + O=c1cc(-c2cccc3c2Sc2ccccc2S3)oc(N2CCOCC2)c1 [KU55933] (first compound 0.2 µM, partner dose 1 µM)", "cell count": 113}
{"smiles": "C[C@@H](Oc1cc(-c2cnn(C3CCNCC3)c2)cnc1N)c1c(Cl)ccc(F)c1Cl", "note": "[Crizotinib] + COC(=O)c1sccc1S(=O)(=O)Nc1ccc(Nc2ccccc2)cc1OC [GSK0660] (first compound 0.2 µM, partner dose 1 µM)", "cell count": 99.4}
{"smiles": "CS(=O)(=O)CCNCc1ccc(-c2ccc3ncnc(Nc4ccc(OCc5cccc(F)c5)c(Cl)c4)c3c2)o1", "note": "[lapatinib] + O=C(O)C(=O)Nc1sc2c(c1C(=O)O)CCNC2 [TCS401] (first compound 0.8 µM, partner dose 1.66667 µM)", "cell count": 90.2}
